# From PubChem BioAssay AID504832 (National Center for Advancing Translational Sciences (NCATS), 2011)
# Out of some 310,000 compounds screened, about 18,000 (5.8%) were called active. The shares of active, inactive and inconclusive entries below differ from those in the screen. Calls follow the shape of the dose curve; as a rule, active = well fitted inhibition curve with a large enough effect; inconclusive = small, poorly fitted or top-dose-only effect, or another doubt; inactive = no such curve, though single readings can be large or run the other way. No potency is given beside an inconclusive call; the fits are too rough.
# Experiment: Primary qHTS for delayed death inhibitors of the malarial parasite plastid, 48 hour incubation
# Conditions: P. falciparum luciferase growth in erythrocytes; series mostly up to 28.7 µM; activity change, negative = inhibition: at the top concentration
# Method in brief: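 Read-out is firefly luciferase luminescence from an integrated reporter in P. falciparum, so falling signal marks reduced parasite growth. Infected erythrocytes were at 2% hematocrit and 0.1% parasitemia (final) in Albumax-supplemented RPMI 1640.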
# % is scaled to controls: 0 for no effect and ±100 for the full control effect; potency is read from the fitted curve at half-maximal effect; tags tell the direction and shape of the fitted curve.
Compound,Potency,"activity change, negative = inhibition"
Cn1c(N)c(C(=O)CSc2nc(C3CC3)n(-c3ccccc3)n2)c(=O)n(C)c1=O,"inconclusive [inhibitor, single point]",
CC1(C)SC(=S)N(/N=C/c2cccnc2)C1N(O)C(=O)NC1CCCCC1 (centres undefined),"inconclusive [inhibitor, single point]",
Cc1cccc(-n2ccnc2CN2CCC(CO)(Cc3ccccc3)CC2)c1,"inconclusive [inhibitor, single point]",
CCN(CC(=O)Nc1ccc([N+](=O)[O-])cc1OC)c1ccccc1,"inconclusive [inhibitor, single point]",
Cc1ccc(S(=O)(=O)N2CCOCC2)cc1NC(=O)CSc1nnc2cc(C)c3ccccc3n12,active: 5.86 µM,
O=C(NCCc1ccccc1)c1cnc2sccn2c1=O,,inactive: 133%
COc1ccccc1N1CCN(CC(=O)Nc2sccc2C#N)CC1,"inconclusive [inhibitor, partial curve]",
O=S(=O)(NCc1ccc(F)cc1)c1ccc(Br)cc1Br,,inactive: 2.43%
O=C(CCc1nnc(CCCc2ccccc2)o1)N1CCCCCC1,,inactive: -0.533%
CCOc1ccc(CN(C)C(=O)CN2C(=O)NC(c3ccccc3)(c3ccccc3)C2=O)cc1,active: 13.1 µM,
CCOc1ccc(C(C(=O)Nc2ccc(F)cc2)N(C(=O)Cn2nnc3ccccc32)C2CC2)cc1 (centres undefined),"inconclusive [inhibitor, partial curve]",
CCn1c2ccccc2c2cc(NC(=O)Cc3ccc(S(=O)(=O)N4CCOCC4)s3)ccc21,"inconclusive [inhibitor, partial curve]",
CCN(CC)C(=O)CC(c1ccc(F)cc1)c1ccco1 (centres undefined),"inconclusive [inhibitor, partial curve, poor fit]",
COc1ccc(NC(=O)CSc2nc(C)cc(C)n2)cc1,,inactive: 7.62%
Cc1noc(C)c1C(=O)Nc1cccc(S(=O)(=O)N2CCCCC2)c1,,inactive: -14.8%
Cc1ccc(NC2=NCC(=O)N2CCc2ccccc2)cc1C,"inconclusive [inhibitor, partial curve]",
COc1ccc(CNC(=S)NC2CCCCC2)cc1,,inactive: 17.6%
CCN(CC(=O)NCc1ccc(Cl)cc1)C(=O)/C=C/c1ccco1,,inactive: 3.96%
CCOC(=O)N1CCC(NC(=O)c2cc3c(-c4ccc(OC)c(OC)c4)nn(C)c3s2)CC1,"inconclusive [inhibitor, partial curve]",
CC(C)OCc1ccc(C(=O)N2CCN(S(=O)(=O)c3ccc(Br)s3)CC2)cc1,"inconclusive [inhibitor, single point]",
O=C(CCN1C(=O)C2C3CCC(C3)C2C1=O)OCC(=O)c1ccc(Cl)cc1 (centres undefined),,inactive: 10.3%
CCOC(=O)N1CCN(c2nc3ccccn3c(=O)c2C=O)CC1,active: 0.294 µM,
CCCCNc1nc(-c2ccccc2)c(C(=O)OCC)cc1C#N,"inconclusive [inhibitor, partial curve, poor fit]",

Compound,Potency,"activity change, negative = inhibition"
Cc1cc(/C=N/NC(=O)c2ccccn2)c(C)n1-c1cccc([N+](=O)[O-])c1,,inactive: -6.32%
C=CCn1c(=O)c2ccc(C(=O)NCc3ccccc3)cc2n(Cc2ccccc2Cl)c1=O,,inactive: 16.4%
Cc1cc(C)nc(N=Nc2c(O)n(Cc3ccc(Cl)cc3)c3ccccc23)n1,"inconclusive [inhibitor, single point]",
CCc1nnc(NC(=O)c2ccc(S(=O)(=O)N(CC(C)C)CC(C)C)cc2)o1,"inconclusive [inhibitor, single point]",
COC(=O)N/N=C/c1ccc(-c2cc(Cl)cc(Cl)c2)o1,"inconclusive [inhibitor, single point]",
Cc1cc(N)c2ccccc2[n+]1CCCCCCCCCC[n+]1c(C)cc(N)c2ccccc21,active: 0.181 µM,
O=c1c2ccccc2c(-c2ccccc2)nn1-c1ccc(Cl)c(Cl)c1,"inconclusive [inhibitor, single point]",
O=C1Cc2ccccc2N1c1c(Cl)cccc1Cl,,inactive: -28.9%
COc1cc(C)c(CN2CCC(n3nccc3NC(=O)C3CC3)CC2)cc1C,"inconclusive [inhibitor, full curve, poor fit]",
O=C(CN1CCN(S(=O)(=O)c2ccc(F)cc2)CC1)NCC1(N2CCOCC2)CCCCC1,"inconclusive [inhibitor, partial curve, poor fit]",
N#Cc1cccc(Oc2ccc(-c3cnc4ccccc4n3)cc2)c1C#N,,inactive: 11.7%
CN(C/C=C/c1ccccc1[N+](=O)[O-])Cc1ccccc1,"inconclusive [inhibitor, partial curve, poor fit]",
O=C(CSc1ncnc2scc(-c3ccc(Cl)cc3)c12)NCc1ccc2c(c1)OCO2,"inconclusive [inhibitor, single point]",
CS(=O)(=O)Nc1ccc(C(=O)NCc2ccc3c(c2)OCO3)cc1,,inactive: 16.8%
COc1cccc(OCc2nc3c4cnn(-c5ccccc5)c4ncn3n2)c1,,inactive: 22.1%
Cc1nnc(NC(=O)c2ccc(S(=O)(=O)N3CCCCC3C)cc2)o1 (centres undefined),active: 11.7 µM,
COc1ccc2c(c1)c(C(O)CN1CCN(Cc3ccc4c(c3)OCO4)CC1)c(C)n2C (centres undefined),"inconclusive [inhibitor, full curve, poor fit]",
CCOC(=O)C1CCCN(C(=O)C2CCN(S(=O)(=O)c3c(C)noc3/C=C/c3ccccc3F)CC2)C1 (centres undefined),"inconclusive [inhibitor, single point]",
NS(=O)(=O)c1ccc(-c2ccc(/C=N/NC(=O)c3ccc([N+](=O)[O-])cc3)o2)cc1,,inactive: 53.4%
CC(C)(O)P(=O)(O)CCc1ccccc1,"inconclusive [inhibitor, full curve, poor fit]",
Clc1ccccc1-c1nc(-c2cccnc2)no1,,inactive: 51.7%
O=C(Nc1ccc(Br)cc1Br)c1cccc2c1C(=O)N(C1CCCCC1)C2,"inconclusive [inhibitor, single point]",
CCOC(=O)C1=C(C)N=c2s/c(=C\c3ccncc3)c(=O)n2C1c1ccc2c(c1)OCO2 (centres undefined),active: 4.15 µM,

Compound,Potency,"activity change, negative = inhibition"
O=C(C1CCN(S(=O)(=O)c2ccc(-n3cnnn3)cc2)CC1)N1CCCCC1,,inactive: 17.6%
CC1(OC(=O)CCc2ccccc2)C(=O)C=C2C=C(c3ccc(C#N)cc3)N(CCN3CCOCC3)C=C2C1=O (centres undefined),"inconclusive [inhibitor, single point]",
CCc1nnc(NC(=O)[C@@H](NC(=O)c2ccc(C(C)(C)C)cc2)C(C)C)s1,"inconclusive [inhibitor, single point]",
COc1ccc(OC)c(-c2cc(C(=O)Nc3c(C)nn(Cc4ccccc4Cl)c3C)no2)c1,active: 13.1 µM,
CCn1cc(C(=O)OCc2cccc(Br)c2)c(=O)c2ccc(C)nc21,"inconclusive [inhibitor, partial curve, poor fit]",
S=C(Nc1ccc2nsnc2c1)N1CCCCCC1,"inconclusive [inhibitor, partial curve, poor fit]",
CC(C)OC(=O)Nc1ccc2c(c1)N(C(=O)CCN1CCOCC1)c1ccccc1CC2,"inconclusive [inhibitor, partial curve, poor fit]",
COc1ccc(CCNC(=O)Cc2ccsc2)cc1,,inactive: 13%
COc1ccc(C(=O)C2CCCN(Cc3cccn3-c3ccc(Cl)cn3)C2)c(OC)c1 (centres undefined),active: 4.15 µM,
O=C(C[n+]1cnn(CC(=O)c2ccc(Cl)cc2Cl)c1)c1ccc([N+](=O)[O-])cc1,active: 3.7 µM,
CCOC(=O)c1ccc(S(=O)(=O)N2CCN(C(=O)c3nn(C)c(=O)c4ccccc34)CC2)cc1,"inconclusive [inhibitor, partial curve]",
CCOC(=O)C1CCN(C(=O)C(=O)c2cn(CC(=O)N3CCCCCC3)c3ccccc23)CC1,active: 11.7 µM,
COc1ccc(-c2noc(CCC(=O)NCC3CCN(Cc4cccc(C)c4)CC3)n2)cc1,"inconclusive [inhibitor, partial curve]",
CCCCC1C2=C(CC(C)(C)CC2=O)OC2=C1C(=O)CC(C)(C)C2,"inconclusive [inhibitor, partial curve, poor fit]",
CCOc1ccc(NC(=O)c2ccc(CN3CCc4ccccc4C3)cc2)cc1,,inactive: -9.64%
CC(=O)OCC1O[C@@H](O[C@@H]2C[C@H]3C(C)(C)[C@H](OC(C)=O)CC[C@]3(C)[C@H]3CC[C@]45C[C@]4(CC[C@H]5[C@@H](C)C[C@@H](O)[C@H](O)C(C)(C)O)[C@@]32C)[C@H](O)[C@@H](O)[C@@H]1O (some centres undefined),active: 11.7 µM,
O=C(Nc1ccc(S(=O)(=O)Nc2ccc(F)cc2)cc1)c1ccc(CN2CCOCC2)cc1,"inconclusive [inhibitor, single point]",
O=[N+]([O-])c1ccc(N2CCOCC2)cc1NC(c1ccccc1)c1ccccc1,"inconclusive [inhibitor, full curve, poor fit]",
COc1ccccc1N1CCN(CC(O)COc2ccc(C)cc2C)CC1 (centres undefined),,inactive: -12.6%
Cc1cccc(-c2nsc(SCC(=O)Nc3nccs3)n2)c1,"inconclusive [inhibitor, partial curve]",
CCCNC(=O)C(Cc1ccccc1)NC(=O)c1ccc(C(F)(F)F)cc1 (centres undefined),,inactive: -25.6%
COCCNc1nc2c(-c3cccc(C(F)(F)F)c3)nnn2c2ccccc12,,inactive: 2.11%
Cc1ccc2nc(SCC(=O)Nc3cccc(S(=O)(=O)NC4=NCCCCC4)c3)[nH]c2c1,"inconclusive [inhibitor, single point]",
